Measurements as given in a compilation of properties of binary mixtures (doi:10.1007/s10953-020-00968-2).
The densities may have been worked out from excess volumes.

Test: xn = mol fraction of the nth substance listed
Conditions: 101 kPa

**Q.** For `O` + CS(=O)(=O)[O-].C[N+](C)(CCO)CCO, which mass density (313.15 K, x2 = 0) is on record?
**A.** The mass density was 992.3 kg/m3.

**Q.** Which mass density (298.15 K, x1 = 0.0989) does the source give for `CS(=O)(=O)[O-].C[N+](C)(CCO)CCO` + O here?
**A.** Its mass density is 1158.4 kg/m3.

**Q.** What about the mass density (298.15 K, x1 = 0.2989) of the same compound?
**A.** The mass density was 1244.9 kg/m3.

**Q.** And the mass density (298.15 K, x1 = 0.3971)?
**A.** Its mass density is 1261.6 kg/m3.

**Q.** What about the mass density (298.15 K, x1 = 0.4797) of the same compound?
**A.** Its mass density is 1271.1 kg/m3.

**Q.** And the mass density (298.15 K, x1 = 0.5983)?
**A.** Its mass density is 1280.7 kg/m3.

**Q.** And the mass density (298.15 K, x1 = 0.6984)?
**A.** Its mass density is 1286.5 kg/m3.

**Q.** And the mass density (298.15 K, x1 = 0.7942)?
**A.** Its mass density is 1291 kg/m3.

**Q.** What about the mass density (298.15 K, x1 = 0.8928) of the same compound?
**A.** Its mass density is 1294.6 kg/m3.

**Q.** What about the mass density (298.15 K, x1 = 1) of the same compound?
**A.** Its mass density is 1298.2 kg/m3.

**Q.** And the mass density (303.15 K, x1 = 0.0989)?
**A.** Its mass density is 1155.8 kg/m3.

**Q.** And the mass density (303.15 K, x1 = 0.1991)?
**A.** Its mass density is 1213.4 kg/m3.

**Q.** And the mass density (303.15 K, x1 = 0.3971)?
**A.** The mass density was 1258.5 kg/m3.

**Q.** What about the mass density (303.15 K, x1 = 0.4797) of the same compound?
**A.** The mass density was 1268 kg/m3.

**Q.** And the mass density (303.15 K, x1 = 0.5983)?
**A.** The mass density was 1277.6 kg/m3.

**Q.** And the mass density (303.15 K, x1 = 0.7942)?
**A.** The mass density was 1287.9 kg/m3.

**Q.** And the mass density (303.15 K, x1 = 0.8928)?
**A.** Its mass density is 1291.4 kg/m3.

**Q.** And the mass density (303.15 K, x1 = 1)?
**A.** The mass density was 1295 kg/m3.

**Q.** What about the mass density (308.15 K, x1 = 0.0989) of the same compound?
**A.** Its mass density is 1153.2 kg/m3.

**Q.** And the mass density (308.15 K, x1 = 0.1991)?
**A.** The mass density was 1210.6 kg/m3.

**Q.** And the mass density (308.15 K, x1 = 0.2989)?
**A.** The mass density was 1238.9 kg/m3.

**Q.** And the mass density (308.15 K, x1 = 0.3971)?
**A.** Its mass density is 1255.5 kg/m3.

**Q.** And the mass density (308.15 K, x1 = 0.4797)?
**A.** The mass density was 1264.9 kg/m3.

**Q.** What about the mass density (308.15 K, x1 = 0.5983) of the same compound?
**A.** The mass density was 1274.5 kg/m3.

**Q.** And the mass density (308.15 K, x1 = 0.6984)?
**A.** Its mass density is 1280.2 kg/m3.

**Q.** What about the mass density (308.15 K, x1 = 0.7942) of the same compound?
**A.** The mass density was 1284.7 kg/m3.

**Q.** What about the mass density (308.15 K, x1 = 0.8928) of the same compound?
**A.** Its mass density is 1288.2 kg/m3.

**Q.** What about the mass density (308.15 K, x1 = 1) of the same compound?
**A.** Its mass density is 1291.7 kg/m3.

**Q.** What about the mass density (313.15 K, x1 = 0.0989) of the same compound?
**A.** The mass density was 1150.6 kg/m3.

**Q.** What about the mass density (313.15 K, x1 = 0.1991) of the same compound?
**A.** Its mass density is 1207.8 kg/m3.

**Q.** What about the mass density (313.15 K, x1 = 0.2989) of the same compound?
**A.** Its mass density is 1236 kg/m3.

**Q.** What about the mass density (313.15 K, x1 = 0.3971) of the same compound?
**A.** The mass density was 1252.5 kg/m3.

**Q.** What about the mass density (313.15 K, x1 = 0.5983) of the same compound?
**A.** The mass density was 1271.4 kg/m3.

**Q.** What about the mass density (313.15 K, x1 = 0.7942) of the same compound?
**A.** Its mass density is 1281.6 kg/m3.

**Q.** And the mass density (313.15 K, x1 = 0.8928)?
**A.** The mass density was 1285.1 kg/m3.

**Q.** What about the mass density (313.15 K, x1 = 1) of the same compound?
**A.** Its mass density is 1288.6 kg/m3.

**Q.** And the mass density (318.15 K, x1 = 0.0989)?
**A.** The mass density was 1147.9 kg/m3.

**Q.** What about the mass density (318.15 K, x1 = 0.1991) of the same compound?
**A.** Its mass density is 1204.9 kg/m3.

**Q.** What about the mass density (318.15 K, x1 = 0.3971) of the same compound?
**A.** The mass density was 1249.5 kg/m3.

**Q.** And the mass density (318.15 K, x1 = 0.5983)?
**A.** Its mass density is 1268.1 kg/m3.

**Q.** And the mass density (318.15 K, x1 = 0.6984)?
**A.** The mass density was 1274 kg/m3.

**Q.** And the mass density (318.15 K, x1 = 0.7942)?
**A.** Its mass density is 1278.5 kg/m3.

**Q.** And the mass density (318.15 K, x1 = 0.8928)?
**A.** The mass density was 1282 kg/m3.

**Q.** And the mass density (323.15 K, x1 = 0.0989)?
**A.** The mass density was 1145.1 kg/m3.

**Q.** And the mass density (323.15 K, x1 = 0.2989)?
**A.** The mass density was 1230.1 kg/m3.

**Q.** What about the mass density (323.15 K, x1 = 0.3971) of the same compound?
**A.** Its mass density is 1246.4 kg/m3.

**Q.** What about the mass density (323.15 K, x1 = 0.5983) of the same compound?
**A.** The mass density was 1265 kg/m3.

**Q.** What about the mass density (323.15 K, x1 = 0.7942) of the same compound?
**A.** The mass density was 1275.4 kg/m3.

**Q.** And the mass density (323.15 K, x1 = 0.8928)?
**A.** Its mass density is 1278.8 kg/m3.
